Reference: patent publication US20210317204A1 (ALMAC DISCOVERY, published 2021)

Assays:
[1] = target: T1, human EGFR on the surface of human cancer cell lines (human); experiment: flow cytometry on A549 at 4 C and 37 C, PE-anti-Myc; signal not split between ROR1 and EGFR
T1 construct: whole, on cells; also called cell surface EGFR

[2] = target: T2, human ROR1 on the surface of human cancer cell lines (human, UniProt Q01973); experiment: as above
T2 construct: whole, on cells; the cell line is named under assay; also called cell surface ROR1

B1: 7C12 P3A1 QASGA (bispecific antibody)
single chain: AVQLVESGGGSVQAGGSLRLT[about 100 residues cut from this listing]WGQGTQVTVSSGGGGSGGGGSGGGGSGGGGSGGGGSTRVDQTPRTATKETGESLTINCVLTDTSYGLYSTSWFRKNPGTTDWERMSIGGRYVESVNKGAKSFSLRIKDLTVADSATYYCKAREARHPWLRQWYDGAGTVLTVNQASGAHHHHHHGAEFEQKLISEEDL
notes: also called 7C12-P3A1 QASGA his myc
B1: binds [1]; binds [2].
